Experimental data from PubChem BioAssay (NCI).
Where “and” joins values, the source holds several entries; their conditions need not be identical. Equal values may be shown once.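 Test compounds were applied to cells in 96-well plates for 48 hours at 5 doses. GI50 = concentration required for 50% inhibition of growth. The concentration for full growth arrest is given as TGI.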 Calls of active or inactive are those of the source. Cut-off read from the data, not from the text of the source: active = GI50 below about 0.43 µM; inactive = the rest.

Tested on: NCI-H322M lung
Assay: growth of human tumour cells (NCI), 48 h

Question: CCCC12Cc3c(OC)ccc(OC)c3CC(Cc3c(OC)ccc(OC)c31)C2=O (stereo not drawn) was tested. Which TGI did it give?
Answer: The TGI was over 100 µM.

Question: How did the TGI turn out when O=C(Nc1ccc(Cl)cc1)/C(=C(/[O-])c1ccc(Br)cc1)[n+]1cccc(-c2ccc(Cl)cc2)n1 was run?
Answer: Its TGI is 17.7 µM.

Question: Which results are given for COC(=O)[C@@H](C)C[C@H](Cc1ccccc1)NC(=O)c1nc([C@@H](C[C@H](C(C)C)N(C)C(=O)[C@@H](NC(=O)[C@H]2CCCCN2C)C(C)C)OC(C)=O)sc1C(C)C?
Answer: GI50: 0.0133 µM; TGI: 28.9 µM

Question: For C=C1C(=O)O[C@@H]2C1C(OC(C)CCC)[C@@H](O)[C@@H](C)C(O)C1O[C@]1(C)[C@H]2O (stereo partly drawn), which outcome is on record?
Answer: Its outcome is “inactive”.

Question: For O=C(O)c1c[nH]c2cc(OCc3ccccc3)ccc2c1=O, which TGI is on record?
Answer: Its TGI is 35.1 µM.

Question: Cc1ccc2cc3cccc(C(=O)NCCN(C)C)c3nc2c1 was tested. Which TGI did it give?
Answer: Its TGI is 3.95 µM.

Question: With O=C1CCN(CCC(F)(F)C(F)(F)C(F)(F)C(F)(F)C(F)(F)C(F)(F)F)C(=S)N1CCC(F)(F)C(F)(F)C(F)(F)C(F)(F)C(F)(F)C(F)(F)F as the compound, how does the TGI read?
Answer: Its TGI is over 100 µM.

Question: Which TGI does the source give for COc1ccc2nc3n(c2c1)C(c1c(F)cccc1Cl)SC3 (stereo not drawn) here?
Answer: The TGI was over 100 µM.

Question: With CC(=O)OCC1OC(n2c(-c3ccc(Cl)cc3)cc(-c3ccccc3)c(C#N)c2=S)C(OC(C)=O)C(OC(C)=O)C1OC(C)=O (stereo not drawn) as the compound, how does the TGI read?
Answer: The TGI was 33.9 µM.

Question: How did the TGI turn out when CN(C)CCn1c(=O)nc2c3c(c([N+](=O)[O-])ccc31)Nc1ccc(O)cc1-2 was run?
Answer: Its TGI is 21.2 µM.

Question: For O=c1ccc2[n+]([O-])c3ccc(O)cc3oc-2c1, which TGI is on record?
Answer: Its TGI is over 70.7 µM.

Question: For COc1ccc(CCCNC(=O)Cc2ccccc2CO)cc1OC, which TGI is on record?
Answer: The TGI was over 100 µM.

Question: Which TGI does the source give for c1ccc(-c2cn3nc(N4CCOCC4)sc3n2)cc1 here?
Answer: The TGI was over 100 µM.

Question: Which TGI does the source give for C=CCN=C1N=C(C)C(C(=O)OCC)S1 (stereo not drawn) here?
Answer: The TGI was over 100 µM.

Question: With C=C(C)[C@@H]1CC[C@]2(C)[C@H](CC[C@@H]3[C@@H]([C@@](C)(O)CCC=C(C)C)CC[C@]32C)[C@@]1(C)CCC(=O)N1CCN(C)CC1 as the compound, how does the GI50 read?
Answer: Its GI50 is 12.6 µM.

Question: What about the TGI of the same compound?
Answer: The TGI was 25.3 µM.

Question: With O=C1c2ccccc2OCC1/C=N/O (stereo not drawn) as the compound, how does the TGI read?
Answer: Its TGI is over 100 µM.

Question: How did the GI50 turn out when C/C(=C\COc1ccc2ccc(=O)oc2c1)C1=CC(=O)C(C)(C)O1 was run?
Answer: Its GI50 is 4.41 µM.

Question: What about the TGI of the same compound?
Answer: The TGI was 15.1 µM and 7.81 µM.

Question: O=C(O)CCC(=O)N1C/C(=C\c2ccccc2)C(=O)/C(=C/c2ccccc2)C1 was tested. Which TGI did it give?
Answer: Its TGI is 21.1 µM.

Question: COC(=O)CNC(=O)CCSc1nnc(COc2ccc(Cl)cc2)n1-c1ccccc1 was tested. Which TGI did it give?
Answer: Its TGI is 85 µM.

Question: How did the TGI turn out when C/C=C/CC(S(=O)(=O)c1ccccc1)S(=O)(=O)c1ccccc1 was run?
Answer: The TGI was over 100 µM.

Question: For OC(Cc1ccc2ccccc2n1)(C(F)(F)F)C(F)(F)F, which TGI is on record?
Answer: The TGI was over 10 µM.

Question: With [O-][n+]1c2cc3c(cc2[n+]([O-])c2c(O)cccc21)CN(CCN1CCOCC1)C3 as the compound, how does the TGI read?
Answer: The TGI was over 100 µM.

Question: CC(CO)(CO)N1C(=O)C2C3c4ccccc4C(c4ccccc43)C2C1=O (stereo not drawn) was tested. Which TGI did it give?
Answer: The TGI was over 100 µM.

Question: COc1ccc(C=C2C(=O)NC(=S)NC2=O)c2ccccc12 was tested. Which TGI did it give?
Answer: Its TGI is over 100 µM.

Question: How did the TGI turn out when COc1ccc(NC=O)c(C(=O)CCNC(C)=O)c1 was run?
Answer: Its TGI is over 100 µM.

Question: CC(C)c1nc(Cl)nc(Cl)c1Cl was tested. Which TGI did it give?
Answer: Its TGI is 2.78 µM.

Question: NC(Cc1cnc(I)[nH]1)C(=O)O (stereo not drawn) was tested. Which TGI did it give?
Answer: Its TGI is over 100 µM.

Question: How did the TGI turn out when CNc1nc(N)cc(=O)[nH]1 was run?
Answer: The TGI was over 100 µM.

Question: COC(=O)C12OCC34C(CC5C(C)=C(O)C(=O)CC5(C)C3C(O)C1O)OC(=O)C(OC(=O)C=C(C)C)C24 (stereo not drawn) was tested. Which GI50 did it give?
Answer: Its GI50 is 0.449 µM.

Question: What does the source list for O=C1C=C2C(=CCOC2O)O1 (stereo not drawn)?
Answer: GI50: 5.9 µM and 17.4 µM; TGI: 15.1 µM and 38.2 µM

Question: S=c1nc(COc2ccc(Cl)cc2)[nH][nH]1 was tested. Which TGI did it give?
Answer: The TGI was over 100 µM.

Question: CCN(CC)c1c(C)c(C(=O)OC)nn1-c1ccccc1 was tested. Which TGI did it give?
Answer: The TGI was over 100 µM.

Question: Which GI50 does the source give for N=C(N)c1ccc(-c2ccc(-c3ccc(F)cc3)s2)nc1 here?
Answer: The GI50 was 1.64 µM.

Question: What about the TGI of the same compound?
Answer: The TGI was 3.1 µM.

Question: How did the TGI turn out when CN(CCCN(C)Cc1ccc(Cl)c(Cl)c1)CCN1CCCC1 was run?
Answer: The TGI was 44 µM.

Question: Which TGI does the source give for C=CCCC1CCCCNC1=S (stereo not drawn) here?
Answer: The TGI was over 10 µM.

Question: What does the source list for Oc1cc(Cn2cnc3c(Cl)nc(Cl)nc32)ccc1C12CC3CC(CC(C3)C1)C2?
Answer: GI50: 18.6 µM; TGI: 38.4 µM

Question: CSc1cc(Cl)c(C)cc1S(=O)(=O)NC(=O)Nc1ccc(Cl)cc1 was tested. Which TGI did it give?
Answer: The TGI was over 100 µM.

Question: Which TGI does the source give for CC(=O)OCC12C(OC(C)=O)C(=O)C3C(OC(C)=O)C14OC3(C)COC(=O)c1cccnc1C(C)C(C)C(=O)OC(C(OC(C)=O)C2OC(C)=O)C4(C)O (stereo not drawn) here?
Answer: Its TGI is over 100 µM.

Question: How did the GI50 turn out when Cc1ccc(/C(=C/C=C(/C#N)C(N)=O)Sc2ncnn2C)cc1 was run?
Answer: Its GI50 is 18.9 µM.

Question: What about the TGI of the same compound?
Answer: The TGI was 51.2 µM.

Question: Which results are given for C=C1C(=O)O[C@H]2[C@H]1CC/C(COC(=O)NCc1c[nH]c3ccc(Br)cc13)=C\CC[C@@]1(C)O[C@@H]21?
Answer: GI50: 2.37 µM; TGI: 7.56 µM

Question: How did the TGI turn out when S=c1[nH]nc(C23CC4CC(CC(C4)C2)C3)n1-c1ccc(Cl)cc1 was run?
Answer: Its TGI is 68.3 µM.

Question: For Cc1ccc(-c2cc(-c3cc(-c4ccc(C)cc4C)n[nH]3)[nH]n2)c(C)c1, which TGI is on record?
Answer: The TGI was 37.4 µM.

Question: For COc1c(O)ccc(C2=Cc3ccc(O)cc3OC2)c1OC, which TGI is on record?
Answer: The TGI was over 77.6 µM.

Question: CCOP(=O)(OCC)/C(C#N)=C/c1nccn1C was tested. Which TGI did it give?
Answer: The TGI was over 100 µM.

Question: For C=C[C@]1(C)C[C@@H](OC(=O)CO)[C@@]2(C)[C@H](C)CC[C@]3(CCC(=O)[C@H]32)[C@@H](C)[C@@H]1O, which TGI is on record?
Answer: Its TGI is over 100 µM.

Question: How did the TGI turn out when CC1C=CC(O)[C@]2(CO)CC3(CCC12)OCCO3 (stereo partly drawn) was run?
Answer: Its TGI is over 100 µM.

Question: How did the TGI turn out when O=C1C=C(Nc2cccnc2)c2ccccc2C1=O was run?
Answer: The TGI was 31.3 µM.

Question: How did the GI50 turn out when CNCCC/C=C1\c2cc3c(cc2-c2c1c1cc(OC)c(OC)cc1c(=O)n2C)OCO3 was run?
Answer: The GI50 was 2.69 µM.

Question: And the TGI?
Answer: The TGI was 18.9 µM.

Question: For C/C1=C\CC[C@@]2(C)O[C@@H]2C[C@@H]2[C@H](C/C(C)=C/CC1)OC(=O)C21CC1, which TGI is on record?
Answer: The TGI was over 100 µM.

Question: With COc1cc(/C=C\c2cc(/C=C\c3ccc(O)c(OC)c3)n(C(=O)COc3ccccc3)n2)ccc1O as the compound, how does the GI50 read?
Answer: Its GI50 is 1.78 µM.

Question: And the TGI?
Answer: The TGI was 10.3 µM.

Question: Which GI50 does the source give for CCC(C)C1=NC(C(=O)N/C=C\c2c[nH]c3cc(Br)c(Br)cc23)(C(C)C)NC1=O (stereo not drawn) here?
Answer: The GI50 was 18.5 µM.

Question: And the TGI?
Answer: The TGI was 35.9 µM.

Question: With Brc1cccc(Nc2ncnc3sc4c(c23)CCC2(C4)OCCO2)c1 as the compound, how does the TGI read?
Answer: The TGI was over 100 µM.

Question: How did the TGI turn out when Cc1ccc(-c2cc(=S)n(-c3ccccc3)c3nc(=S)n(-c4ccccc4)c(N)c23)cc1 was run?
Answer: Its TGI is over 100 µM.

Question: Which TGI does the source give for CCCCC(=O)Nc1ccc2cc(C(=O)OC)c(Cl)nc2n1 here?
Answer: Its TGI is 18 µM.

Question: Which TGI does the source give for C[C@@]1(O)C2C3CC4C5C3C1[C@](O)(C42)[C@H]5Br (stereo partly drawn) here?
Answer: The TGI was over 100 µM.

Question: With Cc1c2cccc(Sc3ccccc3)c2c2c3c(cccc13)[S+](c1ccccc1)C2 (stereo not drawn) as the compound, how does the TGI read?
Answer: The TGI was 15.7 µM.

Question: With COc1cc(Nc2cnc3ccc(N)cc3n2)cc(OC)c1OC as the compound, how does the TGI read?
Answer: The TGI was over 100 µM.

Question: For Cc1nc2c(nc1C)C(=O)C1=C(C2=O)C2C=CC1CC2, which TGI is on record?
Answer: Its TGI is 31.3 µM.

Question: CCCCCCCCCCCCCCCCCCNc1nc(=O)n(C2CC(O)C(COP(=O)(O)OCC(COP(=O)(O)OC3C(CO)OC(n4ccc(N)nc4=O)C3O)OCCCCCCCCCCCCCCCCCC)O2)cc1F (stereo not drawn) was tested. Which TGI did it give?
Answer: Its TGI is over 100 µM.

Question: Which TGI does the source give for CCCCCCCCCCCCCC(=S)N/C=C/OC here?
Answer: Its TGI is over 100 µM.

Question: Nc1ccc(C(=O)N/C(=C\c2cccc([N+](=O)[O-])c2)c2nc3ccccc3[nH]2)cc1 was tested. Which TGI did it give?
Answer: The TGI was over 100 µM.

Question: How did the TGI turn out when CC(C)S(=O)(=O)ON1C(=O)c2ccc(N(C)C)cc2C1=O was run?
Answer: Its TGI is over 79.3 µM.

Question: How did the TGI turn out when CCN(CC)CCN1CCc2c([nH]c3ccccc23)C1c1cccnc1 (stereo not drawn) was run?
Answer: Its TGI is over 100 µM.

Question: Cc1ccc(S(=O)(=O)/N=C(\NO)Nc2ccc(Cl)c(Cl)c2)cc1 was tested. Which TGI did it give?
Answer: The TGI was 5.08 µM.

Question: Which results are given for CCN1CCN(Cc2ccc(NC(=O)c3nc4ccc5[nH]ncc5c4c4c3CCCC4)cc2C(F)(F)F)CC1?
Answer: GI50: 1.37 µM; TGI: 4.42 µM

Question: What does the source list for CCOC(=O)C#Cc1c(C(=O)OCC)nnn1Cc1ccc(C(F)(F)F)cc1?
Answer: GI50: 16 µM; TGI: 30.6 µM

Question: With Clc1ccc(Cc2nc3cc(Cl)ccc3o2)cc1 as the compound, how does the TGI read?
Answer: Its TGI is over 100 µM.

Question: With COC(=O)[C@]12CC[C@@H](C(=O)/C=C/c3cccnc3)[C@@H]1[C@H]1CC[C@@H]3[C@@]4(C)C/C(=C/c5cccnc5)C(=O)C(C)(C)[C@@H]4CC[C@@]3(C)[C@]1(C)CC2 as the compound, how does the GI50 read?
Answer: Its GI50 is 1.3 µM.

Question: What about the TGI of the same compound?
Answer: The TGI was 2.62 µM.

Question: For c1ccc([P+](c2ccccc2)(c2ccccc2)c2ccc([P+](c3ccccc3)(c3ccccc3)c3ccccc3)c3ccccc23)cc1, which TGI is on record?
Answer: The TGI was over 100 µM.
